The values below come from PMC6919601, “Identification of Plasmodium dipeptidyl aminopeptidase allosteric inhibitors by high throughput screening” (PLoS ONE, 2019).

SMILES strings stand for the structures. Among all 110,000 compounds or so, about 230 (0.21%) showed an effect of 50% or more. Some of the results follow.
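Further: 30 min substrate incubation versus DMSO and 10 µM JCP410 controls.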

In the assay the target is DPAP1 (Plasmodium falciparum, UniProt Q8IIJ9). Nature of the assay: primary screen, percent inhibition; read by cleavage of a fluorogenic dipeptide substrate; higher = more effect of the substance. The arrangement: species or system P. falciparum D10 trophozoite lysates; single well.
Sequence of DPAP1 (Q8IIJ9 whole entry, looked up): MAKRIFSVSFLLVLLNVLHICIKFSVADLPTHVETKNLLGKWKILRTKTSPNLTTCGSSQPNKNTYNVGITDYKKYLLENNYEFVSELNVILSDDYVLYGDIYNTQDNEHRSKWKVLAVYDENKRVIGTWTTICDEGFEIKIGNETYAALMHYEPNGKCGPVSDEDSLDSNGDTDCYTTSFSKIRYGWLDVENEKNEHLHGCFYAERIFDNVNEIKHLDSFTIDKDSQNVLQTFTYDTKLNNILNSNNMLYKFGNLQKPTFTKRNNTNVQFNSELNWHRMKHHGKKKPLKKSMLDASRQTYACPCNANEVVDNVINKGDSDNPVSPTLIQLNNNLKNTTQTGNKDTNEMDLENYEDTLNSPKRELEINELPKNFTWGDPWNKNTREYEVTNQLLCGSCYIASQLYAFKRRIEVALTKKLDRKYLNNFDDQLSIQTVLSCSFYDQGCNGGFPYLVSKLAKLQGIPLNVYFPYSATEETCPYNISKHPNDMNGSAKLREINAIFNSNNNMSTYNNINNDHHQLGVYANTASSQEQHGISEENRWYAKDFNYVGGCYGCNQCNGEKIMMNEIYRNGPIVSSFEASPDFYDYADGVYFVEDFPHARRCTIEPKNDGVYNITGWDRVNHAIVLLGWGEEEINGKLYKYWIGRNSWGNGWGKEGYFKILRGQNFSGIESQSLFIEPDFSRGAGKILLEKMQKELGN
Consider `Cn1nc(N)c2c(-c3ccccc3)c(C#N)c(N)nc21`, for which the “% Inhibition @ 10 uM” value is 0.795%.

Take `O=C(NCc1ccccc1)C1CCCN(C(=O)c2ccc(-n3ccc4ccccc43)s2)C1` (stereo not shown): the “% Inhibition @ 10 uM” value is -0.127%.

Take `CC(=O)c1ccc(N2CCN(Cc3cccc(Cl)c3)CC2)cc1`: the “% Inhibition @ 10 uM” value is -3.04%.

Take `Cn1c2ccc(Br)cc2c2nnc(SCC(=O)NC3=NC(=O)CS3)nc21`: the “% Inhibition @ 10 uM” value is -2.87%.

As to `Cc1ccc(C)c(-c2csc(Nc3ccccc3)n2)c1`, the “% Inhibition @ 10 uM” value is 5.32%.

`Cn1c(=O)n2ncnc2c2c3c(sc21)CCCC3`: the “% Inhibition @ 10 uM” value is listed as 0.0539%.

As to `COC(=O)C12CC3CC(CC(N)(C3)C1)C2`, the “% Inhibition @ 10 uM” value is recorded as -5.48%.

On to `COc1ccc(-c2oc(=O)n(CCc3ccccc3)c2-c2ccc(OC)cc2)cc1`, for which the “% Inhibition @ 10 uM” value is -2.63%.

For `CC(C)c1cc(C(C)C)c(S(=O)(=O)Nc2cccc3cccnc23)c(C(C)C)c1`, the “% Inhibition @ 10 uM” value is listed as -6.29%.

Regarding `CCOc1cc(C2c3c(oc4ccccc4c3=O)C(=O)N2c2nc(C)c(C(=O)OC)s2)ccc1O` (stereo not shown), the “% Inhibition @ 10 uM” value stood at 69.6%.

Take `CCCCCN1C(C(=O)c2ccccc2)=C(NC(=O)Cc2ccccc2)c2ccccc2S1(=O)=O`: the “% Inhibition @ 10 uM” value stood at 3.63%.

Turning to `O=C(Nc1nccs1)C1CC(=O)N(c2ccc(Cl)cc2)C1` (stereo not shown), the “% Inhibition @ 10 uM” value worked out at 4.3%.

Turning to `Cc1ccc(C2C(C#N)=C(N)Oc3c2c(C)nn3-c2cccnc2)cc1` (stereo not shown), the “% Inhibition @ 10 uM” value was -0.988%.

For `COc1ccccc1CC(=N)NOC(=O)c1ccccc1OC`, the “% Inhibition @ 10 uM” value is listed as 5.37%.

`COc1ccccc1CNCc1ccc(C)cc1`: the “% Inhibition @ 10 uM” value was -1.96%.

As for `CCN(CC)C(=O)/C(=C/c1cn(CC)c2ccccc12)NC(=O)c1ccc(C)cc1`, the “% Inhibition @ 10 uM” value is reported as -1.74%.

With `CCC(=O)Nc1c2c(nn1-c1cccc(C)c1C)CS(=O)(=O)C2`, the “% Inhibition @ 10 uM” value is 2.35%.

For `Cc1cc(C)c(OCCCCCCN2CCNCC2)c(C)c1`, the “% Inhibition @ 10 uM” value is on record as 1.27%.

Take `CCCCCCNCc1cccc(Br)c1`: the “% Inhibition @ 10 uM” value was 6.98%.

Turning to `COc1cc(-n2nc(C)c(/C=N/c3ccc(O)cc3C)c2O)ccc1Cl`, the “% Inhibition @ 10 uM” value was determined as 4.67%.

For `CNS(=O)(=O)c1cn(CC(=O)NC2CCCC2)cc1S(=O)(=O)NC`, the “% Inhibition @ 10 uM” value is on record as 2.23%.

In the case of `Cc1cc(C)nc(NCCCO)n1`, the “% Inhibition @ 10 uM” value is reported as -3.5%.

Consider `Cc1ccc(NC(=O)c2cccc([N+](=O)[O-])c2C)c(C)c1`, for which the “% Inhibition @ 10 uM” value was 0.247%.

For the compound `O=C(CCn1nc(-c2ccccc2)c2ccccc2c1=O)NC1CCCCC1`, the “% Inhibition @ 10 uM” value is -1.17%.

In the case of `O=C(c1ccccc1[N+](=O)[O-])N1CCN(c2ccc(F)cc2)CC1`, the “% Inhibition @ 10 uM” value is given as -2.02%.

Regarding `COc1ccc(Nc2nc(Cl)nc(N(c3ccccc3)c3ccccc3)n2)cc1`, the “% Inhibition @ 10 uM” value was 0.132%.

Regarding `COC(=O)C1=C(C)OC(=O)C1(NS(=O)(=O)c1ccc(Cl)cc1)C(F)(F)F` (stereo not shown), the “% Inhibition @ 10 uM” value is -1.52%.

`O=C(NC1CCN(Cc2ccccc2)CC1)c1cc(-c2ccco2)[nH]n1`: the “% Inhibition @ 10 uM” value is recorded as -0.899%.

`O=C(Nc1cccc2ccccc12)c1ccc(Cl)c([N+](=O)[O-])c1`: the “% Inhibition @ 10 uM” value was -1.38%.

On to `CC(C)OCCCNC(=O)C1CCN(S(=O)(=O)c2cccc3nsnc23)CC1`, for which the “% Inhibition @ 10 uM” value was -3.35%.

Regarding `CCSc1nc(C)c(CCOc2cccc(C)c2)c(O)n1`, the “% Inhibition @ 10 uM” value stood at 0.686%.

For the compound `CCCN(CCO)Cc1ccc(Cl)cc1`, the “% Inhibition @ 10 uM” value is 1.62%.

Regarding `COc1ccccc1CNC(=O)C1CCCN(S(=O)(=O)c2cccc3cccnc23)C1` (stereo not shown), the “% Inhibition @ 10 uM” value is listed as -2.92%.

Consider `c1ccc(-c2cc3c(-n4cccc4)ncnc3o2)cc1`, for which the “% Inhibition @ 10 uM” value is -4.93%.

For `CCc1ccc(OCc2cc(=O)n3oc(C)cc3n2)cc1`, the “% Inhibition @ 10 uM” value is given as -0.495%.

As for `CCOC(=O)N1CCN(c2ncnc3c2cnn3-c2ccc(C)cc2C)CC1`, the “% Inhibition @ 10 uM” value is recorded as -1.29%.

For the compound `CC1=C(C)CC(C(=O)Nc2cccc(F)c2)C(C(=O)O)C1` (stereo not shown), the “% Inhibition @ 10 uM” value is listed as -2.22%.

As to `O=C(O)c1cnc(-c2ccccc2)nc1`, the “% Inhibition @ 10 uM” value is given as 6.31%.

`Nc1nnnn1NCc1ccccc1OCc1ccc(F)cc1`: the “% Inhibition @ 10 uM” value is -4.35%.

Regarding `CC(C)(C)c1[nH]nc2c1C(c1ccc(Cl)cc1)C(C#N)=C(N)O2` (stereo not shown), the “% Inhibition @ 10 uM” value amounted to 1.58%.

With `CN(C)c1nc2ccc(OCCN3CCCCC3)cc2s1`, the “% Inhibition @ 10 uM” value was -5.86%.

For `FC(F)(F)c1cccc(N2CCN(C3CCN(CCc4ccccc4)CC3)CC2)c1`, the “% Inhibition @ 10 uM” value came to 1.88%.

Take `C#CCOc1c(Cl)cc(C2C(C#N)=C(N)Oc3cc4c(cc32)OCO4)cc1OC` (stereo not shown): the “% Inhibition @ 10 uM” value was -0.366%.

On to `CCCn1c(=O)c(=O)[nH]c2c(=O)oc3ccccc3c21`, for which the “% Inhibition @ 10 uM” value is given as 1.75%.

As for `CCc1ccc2occ(CC(=O)N(Cc3ccc(OC)cc3)C3CCS(=O)(=O)C3)c2c1` (stereo not shown), the “% Inhibition @ 10 uM” value was 11.3%.

As to `CC(C)NC(=O)C(Cc1ccccc1)N1Cc2ccccc2C1=O` (stereo not shown), the “% Inhibition @ 10 uM” value is listed as -2.41%.

For the compound `CSc1nc(C)c(C)c(C)c1C#N`, the “% Inhibition @ 10 uM” value is given as 2.4%.

Turning to `COc1ccc(C(=O)Nc2nnc(CCSc3cc(Cl)ccc3Cl)s2)cc1OC`, the “% Inhibition @ 10 uM” value is on record as 9.39%.

Regarding `CCc1ccc(-c2nc(CSCC(=O)NC3CCC(C)CC3)c(C)o2)cc1` (stereo not shown), the “% Inhibition @ 10 uM” value was -6.64%.

Turning to `COc1ccc(C(=O)NCC(=O)c2ccccc2)cc1`, the “% Inhibition @ 10 uM” value is -3.65%.

As for `CCn1cc(CNC(=O)C23CC4CC(CC(C4)C2)C3)c(C)n1`, the “% Inhibition @ 10 uM” value is -3.37%.

For `CC(CC(=O)N[C@@H](C)c1ccccc1)C(=O)N[C@@H](C)c1ccccc1` (stereo partly shown), the “% Inhibition @ 10 uM” value was 0.132%.

With `CC(C)(C)NC(=O)/C=C/c1ccc(Cl)cc1`, the “% Inhibition @ 10 uM” value is reported as 3%.

Take `Cc1ccc(N2C(=O)c3ccc(C(=O)Nc4cc(C(=O)O)cc(C(=O)O)c4)cc3C2=O)cc1C`: the “% Inhibition @ 10 uM” value worked out at 0.774%.

For the compound `CCC(C)(C)c1ccc(OCC(=O)Nc2ccc(O)cc2C(=O)O)cc1`, the “% Inhibition @ 10 uM” value came out at 12.1%.

With `CCOC(=O)N1CCN(C(=O)c2cc(C)nc3c2c(C)nn3-c2ccc(C)cc2)CC1`, the “% Inhibition @ 10 uM” value was 0.44%.

As for `CCOc1ccc(-c2nonc2NC(=O)COc2ccc(Cl)cc2C)cc1OCC`, the “% Inhibition @ 10 uM” value was -6.98%.

For `COc1ccc(C(=O)Nc2ccc(C3(C#N)CCCC3)cc2)cc1OC`, the “% Inhibition @ 10 uM” value was -1.28%.

Turning to `O=C(Nc1ccc(Br)cc1)c1cccc(S(=O)(=O)N2CCCCC2)c1`, the “% Inhibition @ 10 uM” value was -7.1%.

Regarding `COc1ccc(S(=O)(=O)Cc2ccc(C(=O)N3CC(C)CC(C)C3)o2)cc1` (stereo not shown), the “% Inhibition @ 10 uM” value is listed as -4.96%.

For the compound `COC(=O)c1cc2ccc(Br)cc2[nH]1`, the “% Inhibition @ 10 uM” value is given as -7.52%.

Consider `CC(=O)c1cc(C#N)c(SCCCCSc2nc(C)c(C(C)=O)cc2C#N)nc1C`, for which the “% Inhibition @ 10 uM” value is -1.6%.

Turning to `CC1=CC2=NC(=O)/C(=C\c3cccn3CCCOc3ccccc3Cl)C(=N)N2O1`, the “% Inhibition @ 10 uM” value is -1.43%.

For the compound `Cc1cccn2cc(CNC(=O)c3ccc(C(F)(F)F)cc3)nc12`, the “% Inhibition @ 10 uM” value is on record as -1.72%.
